The labels stand for the following.
B1: LINE1-mini (parent)
chain: GGCAGAGCUCAACACAGCGUGGCAAAGUGGCUGUGGCUAGACUGCC

The source gives no read counts; variants with many changes may rest on few reads.

In the data set the parent is B1. In words: self-cleavage, relative activity (ratio to wild type); higher = more cleavage; in vitro, sequencing; the parent is a self-cleaving ribozyme.
With GGCAGAGCUCAGCUCAGCGUGGGAAAGUGGCUGUAGCUAGACUGCC [A12G A14U C23G G35A], the self-cleavage came to 0.02.

Consider GGCAGAGCUCACCACAGCGUGGCAAAGUGGCUGUGGAUAGUCUGCC [A12C C37A A41U], for which the self-cleavage turned out to be 0.56. The figure for GGCAGAGCUCAGCACGGCCUGGCAAAGUUGCUGUGGCUAGACUGCC [A12G A16G G19C G29U] is 0.03. Regarding GGCAGAGCUCAGCACAGCGUGGCGAAGUAGCAGUGGCUAGACUGAC [A12G A24G G29A U32A C45A], the self-cleavage was 0.01. The figure for GGCAGAGCUCACCACAGCGUGGCAAAGAUGCGGUGGCUAGACUGCC [A12C U28A G29U U32G] is 0.03; for GGCAGAGCUCACCACAGAGUGGCUAAGUGGCUGUGGCUAGAAUGCC [A12C C18A A24U C42A] it is 0.01; for GGCAGAGCUCACCACAGCGUGGGAAAUUGGCUGUGGCUAGACUGCC [A12C C23G G27U] it is 0.02. Turning to GGCAGAGCUCACCAUAGCGUCGCAAAGUGGCUGUGGCUAGACUGCC [A12C C15U G21C], the self-cleavage came to 0.02.

In the case of GGCAGAGCUCAGCACUGCUUGGCAAAGUGGCUGUGGCUAGACUGCC [A12G A16U G19U], the self-cleavage was 0.03. As for GGCAGAGCUCACCAAAGCGUGGCAAAUUGGCUGUCGCUAGACUGCC [A12C C15A G27U G35C], the self-cleavage was determined as 0. In the case of GGCAGAGCUCACCACAGGGUGGUAAAGUGGCUGUGGCUAGACUGCC [A12C C18G C23U], the self-cleavage came out at 0.01. Take GGCAGAGCUCAGCACAGCGUGGCCAAGUGGCUGUGGCUAGACUCCC [A12G A24C G44C]: the self-cleavage was 0.02. The figure for GGCAGAGCUCUACACAGCGUGGCAAAGUGGCUGUGGCGAGGCUGCC [A11U U38G A41G] is 0. For the variant GGCAGAGCUCAGCACUGCGUGGCACAGUGGCUGUGGCUAGACUGCC [A12G A16U A25C], the self-cleavage is 0.02.

With GGCAGAGCUCACCACUGCGUGGCAAAGUGGAUGUGGCUAGGCUGCC [A12C A16U C31A A41G], the self-cleavage amounted to 0.01. With GGCAGAGCUCACCACCGCGUGUCAAAGUGCGUGUGACUAGACUGCC [A12C A16C G22U G30C C31G G36A] the figure was 0.01.

As to GGCAGAGCUCAGCACAGCGUGGCGAAGUGGCUGUGGCUAGACUGCA [A12G A24G C46A], the self-cleavage was 0.02. GGCAGAGCUCACCAUAGCGUGGCAAAGUGGCUGCGGCUAGACUGCC [A12C C15U U34C]: the self-cleavage stood at 0.13. With GGCAGAGCUCACCAUAGCGUGGCAAAGUGGCUGGGGCUAGACUGCC [A12C C15U U34G] the figure was 0.12. For the variant GGCAGAGCUCACCACAGCGUGGCAAAGUUGCUGGGGCUAGACUGCC [A12C G29U U34G], the self-cleavage turned out to be 0.07. With GGCAGAGCUCAGCACCGCGUGGCAAAGUGGCUGUGGCUAGACUGAC [A12G A16C C45A] the figure was 0.03; with GGCAGAGCUCACCAAAGCGUGGCAAAGUUGCUGUGGCUAGACUGCC [A12C C15A G29U], 0.05. For GGCAGAGCUCACCACAGAGUGGCAAAGUGUCUGUGCCUAGACUGCC [A12C C18A G30U G36C], the self-cleavage was determined as 0. Consider GGCAGAGCUCACCACAGCGUAGCAAAUUGGCUGUGGCUAGACUGCC [A12C G21A G27U], for which the self-cleavage amounted to 0.03. The figure for GGCAGAGCUCACCACAGCGUGGCAAAGUGGCUGUGGCUAGACAGCU [A12C U43A C46U] is 0.01; for GGCAGAGCUCACCACAGCGUGUCAAAGUGGCUGUGGCUAGAACGCC [A12C G22U C42A U43C] it is 0.01; for GGCAGAGCUCACCACAGCAUGGCAAAGUGGCUGUGGCUAGCCUGCC [A12C G19A A41C] it is 0.01. With GGCAGAGCUCAGCACAGCGUGGCACAGUGGCUGUGGCAAGACUACC [A12G A25C U38A G44A], the self-cleavage was found to be 0.05. The figure for GGCAGAGCUCACUACAGCGUGGCAAUGUGGCUGUGGCUAGACUGCC [A12C C13U A26U] is 0; for GGCAGAGCUCACCACAUCAUGGCAAAGUGGCUGUGGUAAGACUGCA [A12C G17U G19A C37U U38A C46A] it is 0.01; for GGCAGAGCUCACCACAGCCUGGCAAAGUGGCUGUGGAAAGACUGCC [A12C G19C C37A U38A] it is 0. For the variant GGCAGAGCUCACCACAUCGUGGCAAAGUAGCUGUGGCAAGACUGCC [A12C G17U G29A U38A], the self-cleavage worked out at 0.03. As for GGCAGAGCUCACCACAGCGUGGCACAGUGGCUGUGGCUAGAGUGCC [A12C A25C C42G], the self-cleavage was determined as 0.01. In the case of GGCAGAGCUCACCACAGCGAGGCAAAGCCGCUGUGGCUAGACUGCC [A12C U20A U28C G29C], the self-cleavage is 0. Consider GGCAGAGCUCAGCCCAGUGUGGCAAAGUGUCUGUGGCUAGAUUGCC [A12G A14C C18U G30U C42U], for which the self-cleavage is 0.05. On to GGCAGAGCUCACCACAGCCUGGCAAAGUGGCUGUGGCUAGCCUGCA [A12C G19C A41C C46A], for which the self-cleavage turned out to be 0.01. As for GGCAGAGCUCACCACAGCGUGGCAAAGUGGCUCUGGCUAGACGGCC [A12C G33C U43G], the self-cleavage was 0. For the variant GGCAGAGCUCACCUCAGCGUGGCAAAGUGGCUGUGGCUAGACUGCG [A12C A14U C46G], the self-cleavage came out at 0.02. With GGCAGAGCUCAGCACAGCGUGGCGAACUGGCUGUGGCCAGACUGCC [A12G A24G G27C U38C] the figure was 0.01. Consider GGCAGAGCUCAGCACUGCAUGGCGAAGUGGCUUUGGCUAGUGUGCC [A12G A16U G19A A24G G33U A41U C42G], for which the self-cleavage came to 0.01. Regarding GGCAGAGCUCUACACAGCGUGGCAAAGCCGCUGUGGCUAGACUGCC [A11U U28C G29C], the self-cleavage worked out at 0.03. The figure for GGCAGAGCUCACCCCAGCGUGGCAAAGUGACUGUGGCUAGACUGCC [A12C A14C G30A] is 0.04; for GGCAGAGCUCACAACAGCGUGGCAAAGUGGCUGUGGCGAGACUGCC [A12C C13A U38G] it is 0. In the case of GGCAGAGCUCACCACAGCGUGUCAAAGUGUAUGUGGCUAGACUGCC [A12C G22U G30U C31A], the self-cleavage came out at 0.01.

Consider GGCAGAGCUCACCACAGCGUGGCAAAGUGGCUGUGCCUAUACUUCC [A12C G36C G40U G44U], for which the self-cleavage amounted to 0. For the variant GGCAGAGCUCACCACAGCGUGGCAAAUUGGCGGUCGCUAGACUGCC [A12C G27U U32G G35C], the self-cleavage was determined as 0.03.

Consider GGCAGAGCUCACCACAGCGAGGCAAAGUGGCUGUUACUAGACUGCC [A12C U20A G35U G36A], for which the self-cleavage was 0.01. GGCAGAGCUCACCACAGCGUGGAAAAGUGUCAGUGGCGAGACCGCC [A12C C23A G30U U32A U38G U43C]: the self-cleavage amounted to 0.

In the case of GGCAGAGCUCACCACAGCGUGGCAAAGUGGCUAUUCCUAGACUGCC [A12C G33A G35U G36C], the self-cleavage is 0.04. On to GGCAGAGCUCACCACAGCGUGAAAAAGUGGCUGUGGCUAGAUUGCC [A12C G22A C23A C42U], for which the self-cleavage is 0. The figure for GGCAGAGCUCACCACAGCGUGCCACAGUGGCUGUGGAUAGACUGCC [A12C G22C A25C C37A] is 0; for GGCAGAGCUCACCACAGCGUGGCAACGUGGAUGUGGCUAGACUGCC [A12C A26C C31A] it is 0.01. The figure for GGCAGAGCUCACCACAGCGUGGCAAAGUGGCUGCGGCUAGACUGCU [A12C U34C C46U] is 0.03; for GGCAGAGCUCACCUCAGCGUGGCAAAGUGGCUGUGGCUAGACGGCC [A12C A14U U43G] it is 0.01; for GGCAGAGCUCACCACAGCGUGGCAAAGAGGCUGUGGGGAGACUGCC [A12C U28A C37G U38G] it is 0.02. With GGCAGAGCUCACCAGAGCGGGGCAAAGUGGCUGCGGCUAGACUGCC [A12C C15G U20G U34C] the figure was 0.01.

Source of the values: the RNAGym collection of RNA variant scans (doi:10.7554/elife.90254).
